Assays:
[1] = target: T1, human TIE2-his (Sino Biological, 10700-H08H) (human, UniProt Q02763 23-745); test: ELISA, scFv phage on coated hTIE2-his, HRP anti-M13 detection
T1 construct: Bought protein; also called hTIE2-his; hTIE2; not shown: his tag

[2] = target: T2, mouse Tie2-his (Sino Biological, 51087-M08H) (mouse, UniProt Q02858 23-743); test: ELISA, scFv phage on mouse TIE2 antigen, HRP anti-M13 detection
T2 construct: Bought protein; also called mTIE2-his; mTie2-his; not shown: his tag
T2 sequence (looked up): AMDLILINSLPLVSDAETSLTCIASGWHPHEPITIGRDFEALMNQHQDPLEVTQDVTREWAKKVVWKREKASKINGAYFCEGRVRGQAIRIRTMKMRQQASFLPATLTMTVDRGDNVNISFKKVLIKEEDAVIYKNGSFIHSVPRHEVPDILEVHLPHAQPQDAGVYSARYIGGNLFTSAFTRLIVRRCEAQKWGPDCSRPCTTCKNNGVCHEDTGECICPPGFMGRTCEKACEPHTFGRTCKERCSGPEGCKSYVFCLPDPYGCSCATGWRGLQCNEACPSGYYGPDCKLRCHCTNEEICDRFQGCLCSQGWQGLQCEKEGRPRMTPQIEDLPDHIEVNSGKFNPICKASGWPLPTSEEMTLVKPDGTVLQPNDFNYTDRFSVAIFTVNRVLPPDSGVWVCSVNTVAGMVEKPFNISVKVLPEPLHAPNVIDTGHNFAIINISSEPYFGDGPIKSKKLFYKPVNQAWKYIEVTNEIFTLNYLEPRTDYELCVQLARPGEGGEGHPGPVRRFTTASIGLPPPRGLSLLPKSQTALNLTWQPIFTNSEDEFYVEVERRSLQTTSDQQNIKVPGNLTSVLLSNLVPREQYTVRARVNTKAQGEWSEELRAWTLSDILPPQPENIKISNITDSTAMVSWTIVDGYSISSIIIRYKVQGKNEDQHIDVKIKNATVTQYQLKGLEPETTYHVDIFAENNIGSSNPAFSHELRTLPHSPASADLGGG

B1: 1A6 monoclonal scFv phage (scFv)
chain: [not shown - about 100 residues]GVDSSMVTGFDHWGQGTLITVSSDIQMTQSPSTLSASVGDRVTITCRASQSISRWLAWYQQKPGKAPKFLIYEASTLESGVPSRFSGSGTGTEFTLTISSLQPDDFATYYCQQYEDYPLTFGQGTRLEIKR
[1]
  Human ELISA: 2.1
[2]
  Mouse ELISA: 0.1

Source: US20220213201A1 (PHARMABCINE, published 2022)
